The source gives no read counts; variants with many changes may rest on few reads.
B1: CPEB3 Ribozyme (parent)
chain: UAACAGGGGGCCACAGCAGAAGCGUUCACGUCGCAGCCCCUGUCAGAUUCUGGUGAAUCUGCGAAUUCUGCUGUAUAUCUC

Variants of: B1
Experiment: self-cleavage, relative activity (ratio to wild type); higher = more cleavage; in vitro, sequencing
In short: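 Libraries of CPEB3 self-cleaving ribozyme mutants came from rounds of error-prone PCR and carried barcodes, which DNA sequencing matched to variants. In vitro transcription used T7 RNA polymerase at 37°C for 5 hours, with a further 15 min in DNase I before EDTA stopped the reaction; the ribozymes cleaved during both steps. The RNA was reverse transcribed with template switching and sequenced on Illumina. Relative activity is the cleaved/total read fraction of a variant divided by that of the unmutated ribozyme, averaged over three batches with at least 5 reads.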

Variant | self-cleavage
G7A A20G A28G A35G A64G U78C | 0.06
G7A A20G A35U U41C U60C | 0.08
G7A A20G C29U U54C U60A | 0.06
G7A A20G C79A | 0.1
G7A A20G G22A A45G U72A | 0.05
G7A A20G U25C A28U U69C | 0.07
G7A A20G U60C U69G | 0.14
G7A A20U A35G | 0.08
G7A A20U U25C A65G U74A | 0.05
G7A A21G A28U U41C U43C | 0.16
G7A A21G U25C U26A A56G A64G U69A | 0.03
G7A A21G U31A A47G | 0.15
G7A A21G U43C A45G U48C U80C | 0.05
G7A A21U U43C U51C | 0.06
G7A A28G G61C | 0.18
G7A A35G A45U U54C U60G | 0.3
G7A A35U A45U C62U A75U | 0.04
G7A A45G U76C | 0.08
G7A A64U U72A U80C | 0.06
G7A C12G A15G C23G A64G | 0.16
G7A C12G A65G A75G | 0.09
G7A C23U U26A C34U U51C U74A | 0.17
G7A C27U U31A A64U U69A | 0.05
G7A C29A A47G U58A | 0.12

Variant | self-cleavage
G7A C34U U48C A57U A64U | 0.21
G7A C38U A56G U78C | 0.05
G7A G8A C40U G42C U67C | 0.13
G7A G8U A57G C62U U66C U67A | 0.03
G7A G10A A56U U60C U69A | 0.17
G7A G10A A65U | 0.06
G7A G24A U25C U49A A75U | 0.07
G7A G30U A47C U54A A56U U72C | 0.08
G7A G33U U41C U48C U60A U74C | 0.14
G7A G42U U49C U69C | 0.07
G7A G46A U78A | 0.36
G7A G55C U67C | 0.06
G7A G70A A75G U76G | 0.13
G7A G73U U76C | 0.42
G7A U25A U31C G52A | 0.05
G7A U25C U43C U60C | 0.07
G7A U26A A45G G52A A56U U80A | 0.04
G7A U26A U31A U41C U67A | 0.05
G7A U26A U43A U69A | 0.24
G7A U26C U43A | 0.4
G7A U41A A75G | 0.18
G7A U43C U49C A64G | 0.33
G7A U51A G70U | 0.16
G7A U51C U69A | 0.07

Variant | self-cleavage
G7A U60A A65U | 0.05
G7A U67C A77G U78A | 0.16
G7C A13C A15G U25A U49C U60C U67C | 0
G7C A13G U43C U54A | 0.18
G7C A13G U72A | 0.31
G7C A15G U25C A47C | 0.3
G7C A18C A45G U54A A56G U58C U69C | 0.11
G7C A18U U25C | 0.08
G7C A20G A21G U25C U51C A57G C81U | 0
G7C A21G U25C U60C | 0.21
G7C A21G U69C | 0.25
G7C A35C C62U | 0.14
G7C A35G C39A A56U C59G U78C | 0.04
G7C A35G U72A | 0.07
G7C C11A A18G A28U G36A U54C A77G | 0.03
G7C C14U C23G U26A U31C C44G | 0.03
G7C C34A A35C U51G A56C C62U | 0.09
G7C C39U A47U U80A | 0.07
G7C G8A U26C A45G U58C U69C | 0.05
G7C G9A U78A | 0.06
G7C G10A U41C U51C A65U U67C U80C | 0.05
G7C G22A U25C U31C U43A | 0.06
G7C U25A U43A | 0.07
G7C U26A A28G C37U U78A | 0.05

Variant | self-cleavage
G7C U26A U69C | 0.25
G7C U26C C39A U43C A45U U54C | 0.04
G7C U26C U76C | 0.06
G7C U41A U49C U69C | 0.34
G7C U51C U72C | 0.07
G7C U51C U76C | 0.06
G7U A13C A28U U60A A65G | 0.17
G7U A13G A20G U41G U51A | 0.08
G7U A13G C14U U49C U58C U78A | 0.12
G7U A13G G22A U31C U51C A64U | 0.05
G7U A13U A35G G46U G70A | 0.06
G7U A13U U31C A45G U51C A75G | 0.06
G7U A13U U48A A57G U76C U80C | 0.06
G7U A13U U58A U72C U80C | 0.06
G7U A15G A20G U51C U69C | 0.07
G7U A15G A35G G52C A56U | 0.21
G7U A15G G16A A20C U26C | 0.05
G7U A15G G22C G30U U41A G73C | 0.19
G7U A15G U25C C37G U43C U67C A77U | 0.02
G7U A15G U26A U48C A57G C62U A64G | 0.03
G7U A15U U25G U26C U43C U72C | 0.06
G7U A18G U25C U43C G53U | 0
G7U A18U A45G A57G | 0.15
G7U A18U G33U A45G G53C G73A A75U | 0.02

Variant | self-cleavage
G7U A20C U41C | 0.21
G7U A20G A21G U26C A56U | 0.16
G7U A20G U25C | 0.5
G7U A20U U41C A56G G61U A77G | 0.06
G7U A21G U51C U72C | 0.05
G7U A21U A35U U80A | 0.19
G7U A21U U25C U69C | 0.06
G7U A28U U49C A57G | 0.04
G7U A35C U41C A45G U58C U72A | 0.06
G7U A35G G46A U60G U80A | 0.18
G7U A35G U43C U51A A57U | 0.13
G7U A35U U41C A56G U60G | 0.07
G7U A45C A75G | 0.23
G7U A45G A56G | 0.15
G7U A45G U49C | 0.37
G7U A47G U60C A65G U74C A75U | 0.11
G7U A47U A65G A75G | 0.04
G7U A64U U69C U72A G73U | 0.06
G7U C11A U25C U41A U58C U69A | 0.05
G7U C11U U48C U51A | 0.05
G7U C12U A18G A64G | 0.05
G7U C14A C38U U67C | 0.11
G7U C17U A35G U67A | 0.17
G7U C23G A45G C62U A64U | 0.03

Variant | self-cleavage
G7U C23G U67C | 0.14
G7U C27U U69C | 0.19
G7U C29U A47C U51A | 0.15
G7U C32A U43G | 0.07
G7U C32U A56U A57G | 0.09
G7U C40A U41C | 0.22
G7U C40A U78C | 0.16
G7U G8A G55U U72A | 0.05
G7U G9A A35G C71U | 0.05
G7U G9A C12G G19U U43A U60C U72A | 0.05
G7U G10A A15U G19U C23U | 0.05
G7U G10C A15U U72C U80C | 0.06
G7U G10C A18G A35G | 0.11
G7U G10C A18G U80C | 0.33
G7U G19A A56G | 0.26
G7U G19A U25C U43C A64G | 0.11
G7U G19U A28U | 0.2
G7U G30U U41A U76C | 0.16
G7U G33A A35C U54C A64U U69A | 0.04
G7U G36A U60C G61A U66C | 0.04
G7U G52C C59A U69C | 0.04
G7U U25C U31C U43A | 0.21
G7U U26A U67C U78C | 0.04
G7U U26C A57G | 0.06

Variant | self-cleavage
G7U U26C U80C | 0.22
G7U U31A A47G A56U | 0.13
G7U U31C U41C U58A | 0.06
G7U U41A A45G A64U | 0.14
G7U U41A U66C U78A | 0.34
G7U U41C A47U | 0.15
G7U U41C A65G | 0.16
G7U U41C U48A A56G U72C U80C | 0.07
G7U U43A G52A U80C | 0.32
G7U U43C A65G U67C | 0.06
G7U U43C U48C A57G | 0.08
G7U U54A A56U A75G | 0.08
G7U U58C A64U | 0.11
G7U U72C U76G | 0.25
G8A A13G A15G G55U C62U A64G | 0.05
G8A A13G A18G U60C U66G | 0.06
G8A A13G A21G A35G U51C A57G U76C | 0
G8A A13G C29U A45U U67A U74A | 0.05
G8A A13G G16A U60A | 0.17
G8A A13G U25C | 0.09
G8A A13G U26C A28C U51A A65G | 0.06
G8A A13G U60A | 0.08
G8A A13G U76C | 0.36

From the RNAGym collection of RNA variant scans (doi:10.1093/nar/gkz1192)
